According to the supplement of paper PMC3334620:
Whole data set: some 33,000 sequences, median “E-score (-0.5 to 0.5)” near -0.01, cut for the highest 2% near 0.26. Some of the results follow.

molecular target: Ste12 (UniProt P13574); test: PBM E-score (8-mer binding enrichment) (E-score (-0.5 to 0.5)); higher = stronger / more preferred TF binding; most listed sequences are background and not binding sites; settings: protein concentration: 200 nM; construct: GST-DNA-binding domain
Protocol: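 Universal 'all 10-mer' protein binding microarrays (Agilent AMADID 015681) probed with GST-tagged S. cerevisiae TFs (full-length or DBD) made by in vitro transcription/translation (PURExpress), about 100-200 nM. Bound TF was detected with fluorescent anti-GST. Each ungapped 8-mer (which stands for itself and its reverse complement) is scored by the PBM enrichment score (E-score), a modified Wilcoxon-Mann-Whitney statistic from -0.5 to +0.5, computed with the Universal PBM Analysis Suite. Scale: above 0.35 generally sequence-specific binding.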

Row | Sequence | PBM E-score
1 | CGTTCATC | 0.0551
2 | ATTACAGA | 0.238
3 | AAGAAGTG | 0.166
4 | ATACGTAC | -0.0302
5 | GGGCGTAA | -0.0124
6 | CTGGCCTC | -0.0475
7 | CCTCTAAG | -0.0235
8 | CCTGAACA | -0.0688
9 | GAGCCCAC | -0.0321
10 | ACGGTGGA | -0.127
11 | CCTAAGTC | -0.0648
12 | AGTGAAAT | 0.0994
13 | GACTTCTA | -0.0275
14 | AGGCAGAC | -0.104
15 | ACTCGACT | 0.0162
16 | ACTATAGG | -0.174
17 | CGGGGGAC | -0.133
18 | CAAAGTAG | 0.0544
19 | AATCTCCA | -0.184
20 | CATTGGAA | 0.062
21 | ACCATCAG | -0.0967
22 | ACTTCACC | -0.0192
23 | AGCTTATA | -0.162
24 | CCCTGAGC | 0.0456
25 | CCATATTA | 0.198

Row | Sequence | PBM E-score
26 | TAGTGTAA | 0.183
27 | TATGCCCA | -0.0781
28 | AAATGCAC | -0.00999
29 | ATCAAGTG | -0.0201
30 | GAGATAGA | -0.0729
31 | TCCATGGA | -0.0177
32 | GGCCTCTA | -0.338
33 | ACCTGCTG | 0.103
34 | AAGGAAGA | -0.0303
35 | AAACCCGA | 0.336
36 | AGGCATGC | -0.0768
37 | CGCGAGAC | 0.0627
38 | CCCATGTA | -0.0798
39 | AAGTGTAC | -0.152
40 | GGTTGAAA | 0.292
41 | GTGATTGA | -0.00894
42 | CGCAAACC | 0.0209
43 | AGGAGTTC | -0.22
44 | AACTTCAG | -0.0235
45 | GCTGCATA | -0.114
46 | GATCATGA | 0.152
47 | CTCATCAC | 0.0646
48 | TGGCTACA | 0.0979
49 | CAAACAAA | 0.149
50 | AAGGGAGA | -0.187

Row | Sequence | PBM E-score
51 | CACCTTGC | -0.0458
52 | AGCGTCGA | 0.0364
53 | CAAACAGC | 0.123
54 | GGTTGGAC | -0.193
55 | CGACGGTC | -0.0211
56 | AAGTGCTA | -0.166
57 | AGCTTTCA | -0.0262
58 | ACCCCGAT | 0.107
59 | AATGGCCA | -0.117
60 | ACTCCTAA | -0.0995
61 | ACTGCGTA | -0.302
62 | ATAACATA | 0.175
63 | CGCCCGAG | -0.0373
64 | CTGGGTAA | 0.0362
65 | TCCACTAA | 0.0618
66 | AAGGGCCA | -0.0964
67 | CGCGCAAA | 0.225
68 | AACACAAT | 0.1
69 | ATTGTACG | -0.213
70 | GTCCAGTA | -0.0658
71 | GAAACTAA | 0.182
72 | GCTATGAA | 0.033
73 | CTGCCCCA | -0.0138
74 | ATCGGGTG | 0.123
75 | ATACACGC | -0.0811

Row | Sequence | PBM E-score
76 | AATCCGCA | 0.166
77 | AAGGTATC | -0.0647
78 | CTATGGTC | -0.0835
79 | CTGGCGTA | -0.108
80 | ACGCTTTC | 0.0906
81 | CTGGCATC | -0.283
82 | AGGGCCTA | -0.151
83 | AATGTGCT | -0.0631
84 | TCCGGTCA | -0.256
85 | AAGAAAAG | 0.302
86 | TCGTACAA | -0.0975
87 | CCAAGCCA | -0.164
88 | AATAACAA | 0.0464
89 | GAAGGCCA | -0.00112
90 | CACTACTG | -0.11
91 | ACAAGCCG | -0.1
92 | GAACACGA | 0.0114
93 | GGTTCAAC | -0.0421
94 | AAGATAGT | 0.0884
95 | TCGACACA | 0.146
96 | ATAGAGTA | 0.0755
97 | GGTGCGAA | 0.2
98 | ACCATTCA | 0.0908
99 | ACAGCCGC | 0.0234
100 | CAACGCGG | -0.0344

Row | Sequence | PBM E-score
101 | ATTGACCG | 0.0853
102 | CCCAGATA | -0.0876
103 | ATCTTATA | 0.0647
104 | CCAGCTCA | -0.194
105 | ACTTTGTC | 0.0571
106 | CACTACCG | -0.167
107 | CCGGCTGA | 0.0715
108 | GGGGCGTA | 0.282
109 | CGGTTTAG | -0.00848
110 | AGCAGAAT | 0.148
111 | GGGTGACA | -0.149
112 | AGTCGGAA | 0.106
113 | TCCAGCAA | -0.145
114 | TAAACACA | 0.175
115 | ATGTCAAC | -0.0625
116 | AGGATCCG | -0.23
117 | ACAAAGCC | 0.051
118 | AGGTTCGA | 0.0869
119 | AATGATTG | 0.182
120 | AGATCGGG | -0.0473
121 | GCGTCGGA | 0.203
122 | ATAAAAGA | 0.0538
123 | GCTCTAAA | -7e-05
124 | CCTATTCC | 0.0843
125 | CTACGATA | 0.0831

Row | Sequence | PBM E-score
126 | GTGGCGCA | 0.0163
127 | TCCTGAAA | 0.25
128 | AGGTTATC | -0.095
129 | CCGTCCAC | 0.0274
130 | AGACTGTA | -0.113
131 | ATCACGTC | -0.137
132 | AATGAAAA | 0.292
133 | AATGGTGG | 0.0525
134 | ACTGTCGG | -0.199
135 | ACAGTATC | -0.0327
136 | AGCTAACT | -0.0183
137 | GAATCAGA | 0.201
138 | AGATAGAC | -0.174
139 | ATATATGC | 0.239
140 | ACGCTTGG | -0.293
141 | CTGCTTGA | -0.109
142 | CAAGATTC | -0.0244
143 | ATCTGGGA | -0.0311
144 | CAAGGGCG | -0.246
145 | CTCCTTCC | -0.168
146 | ACGCAGAT | -0.0413
147 | CGCGCATC | -0.00798
148 | ATGAATAA | 0.0153
149 | GACGGACC | -0.134
150 | AGGGAACT | -0.0814

Row | Sequence | PBM E-score
151 | GCTATGGA | -0.0305
152 | AGCTACGG | -0.168
153 | TCGCGAGA | 0.0787
154 | AATAACGG | 0.164
155 | GACGATGC | -0.137
156 | CCACCCAA | 0.0281
157 | GCAACACC | 0.0245
158 | CAAAGGAC | -0.217
159 | ATTTTTAA | 0.28
160 | CGATGGTA | -0.0983
161 | ACGCGCCA | -0.00466
162 | AGTCAAGC | -0.107
163 | CAACAAGG | 0.0782
164 | CTGTGCAC | -0.145
165 | AAAAATGA | 0.247
166 | CGAAACCG | 0.258
167 | CAACTATC | 0.164
168 | GCCACAGA | -0.252
169 | AATGGGCA | 0.0995
170 | CTCCATCA | -0.0062
171 | GGTGGCAC | -0.0283
172 | CTCCTGTC | -0.0854
173 | ATAAGGAG | -0.00103
174 | GCCGTTAC | 0.0829
175 | TCTAATAA | 0.0364

Row | Sequence | PBM E-score
176 | ACGTATGC | -0.099
177 | AGCCACCA | 0.0794
178 | ATATATAG | 0.184
179 | AAGGGTGG | -0.112
180 | ATTGAGGA | -0.041
181 | GATCAACC | -0.032
182 | TAAGAACA | 0.256
183 | ACACAGTG | -0.154
184 | GTTCTTTA | 0.0601
185 | GATACGCA | -0.0118
186 | GGCAAGAA | 0.0412
187 | GGGGCACA | 0.0337
188 | GAGCAGGA | -0.14
189 | GTTCGCTA | -0.0318
190 | ATTCATGC | 0.137
191 | ACCCTGAA | 0.0664
192 | AGCAACGA | 0.0712
193 | TCGCTCAA | 0.0959
194 | TCGCAAAA | 0.115
195 | GGCGATAC | -0.118
196 | CCAGGGGA | -0.0964
197 | CTTACCGA | -0.0109
198 | AAGCATGA | 0.0507
199 | TCGCGACA | 0.0485
200 | AGAATTTA | 0.159

Row | Sequence | PBM E-score
201 | TCGTTTAA | 0.155
202 | AATGATGA | 0.135
203 | CTGGGATA | -0.0846
204 | AACCTCAC | 0.0575
205 | CCACCACG | -0.0423
206 | GCCAAGCC | -0.167
207 | CCAGTCTC | -0.15
208 | ACTGCGCT | 0.0133
209 | TCGTACCA | -0.0257
210 | ACGGATTA | 0.0543
211 | AATGTGAA | 0.212
212 | CTAAACCA | -0.00415
213 | ATATCATC | 0.141
214 | ATAGGGAC | -0.141
215 | GCCTCGAA | 0.0608
216 | TAGGCCTA | -0.15
217 | GCGTTGCA | -0.0206
218 | AAAGCCTG | -0.0934
219 | GCTACCAA | -0.104
